The campaign covered roughly 390,000 compounds. About 17,000 (4.4%) were called active. The shares of active, inactive and inconclusive entries below differ from those in the screen. The call rests on the fitted dose curve; in most records, active means well fitted inhibition curve with a large enough effect; inconclusive means small, poorly fitted or top-dose-only effect; inactive means no such curve, though single readings can be large or run the other way. Where the call is inconclusive, the potency comes from a doubtful curve fit.
Biological target: Lysine-specific demethylase 4A (Homo sapiens) (UniProt O75164)
Assay: qHTS Assay for Inhibitors of JMJD2A-Tudor Domain; further: nearly all actives have a fitted effect of over 50% in size
Conditions: AlphaScreen JMJD2A-Tudor / H3K4me3 peptide binding; activity change, negative = inhibition: at 114 µM (top of the series)
On the % scale 0 is the no-effect control and ±100 the full control effect; potency means the concentration at half of the fitted maximal effect; tags describe the fitted curve by direction and shape.

UniProt O75164, sequence (O75164 whole entry, looked up, the tested form may be a part): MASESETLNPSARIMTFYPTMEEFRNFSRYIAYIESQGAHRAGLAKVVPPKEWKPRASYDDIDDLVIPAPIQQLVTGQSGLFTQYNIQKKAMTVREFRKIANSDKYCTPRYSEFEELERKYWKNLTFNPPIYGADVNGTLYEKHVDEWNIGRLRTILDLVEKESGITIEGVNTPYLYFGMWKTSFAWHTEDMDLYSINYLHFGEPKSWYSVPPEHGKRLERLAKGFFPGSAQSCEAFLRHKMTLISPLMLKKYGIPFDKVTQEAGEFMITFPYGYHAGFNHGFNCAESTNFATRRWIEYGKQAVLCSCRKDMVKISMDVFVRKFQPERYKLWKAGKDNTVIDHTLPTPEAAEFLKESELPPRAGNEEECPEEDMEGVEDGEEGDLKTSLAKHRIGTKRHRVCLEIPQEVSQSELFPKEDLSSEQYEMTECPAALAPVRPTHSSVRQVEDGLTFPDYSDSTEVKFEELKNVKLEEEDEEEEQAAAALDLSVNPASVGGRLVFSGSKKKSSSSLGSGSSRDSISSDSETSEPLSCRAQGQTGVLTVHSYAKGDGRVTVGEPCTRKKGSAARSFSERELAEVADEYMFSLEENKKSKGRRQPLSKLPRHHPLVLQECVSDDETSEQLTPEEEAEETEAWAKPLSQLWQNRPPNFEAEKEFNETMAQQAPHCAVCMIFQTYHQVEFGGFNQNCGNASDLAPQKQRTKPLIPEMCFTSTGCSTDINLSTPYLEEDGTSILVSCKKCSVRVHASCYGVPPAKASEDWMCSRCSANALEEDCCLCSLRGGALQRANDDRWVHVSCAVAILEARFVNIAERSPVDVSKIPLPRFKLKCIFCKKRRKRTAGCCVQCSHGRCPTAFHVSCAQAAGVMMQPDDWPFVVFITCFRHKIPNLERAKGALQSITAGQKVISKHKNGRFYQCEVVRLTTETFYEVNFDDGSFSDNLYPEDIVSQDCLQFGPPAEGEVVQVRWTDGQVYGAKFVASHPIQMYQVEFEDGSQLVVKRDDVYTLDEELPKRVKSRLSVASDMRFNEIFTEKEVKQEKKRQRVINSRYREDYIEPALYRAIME

Structure (SMILES) | Potency | activity change, negative = inhibition
CN1C[C@@H]2[C@@H]3C(=O)N(C)C(=O)[C@@H]3[C@](C)(C1=O)N2C(=O)c1ccc(C(C)(C)C)cc1 | inactive | –
O=[N+]([O-])c1cc(-c2nnc(Nc3ccccc3)c3ccccc23)ccc1N1CCOCC1 | inconclusive: 20 µM [inhibitor, full curve] | –
COc1ccc(C2=Nn3c(nnc3-c3ccccc3OC)SC2)cc1OC1CCCC1 | inconclusive: 15.8 µM [inhibitor, full curve] | –
O=S(=O)(c1ccc(Cl)cc1)c1nc(-c2ccccc2F)oc1NCCCN1CCOCC1 | inconclusive: 50.1 µM [inhibitor, partial curve] | –
C/C(=N\NS(=O)(=O)c1ccc([N+](=O)[O-])cc1)c1c[nH]c2ccccc12 | inconclusive: 89.1 µM [inhibitor, single point] | –
O=C(Cn1ncc2c3ccccc3n(Cc3ccccc3F)c2c1=O)NCCCc1ccccc1 | inactive | –
C=CCOn1c(=O)c(-c2ccccc2)[n+]([O-])c2ccccc21 | inactive | –
O=C(N/N=C/c1cc(Br)c(O)c(Br)c1O)c1cccnc1 | active: 50.1 µM | –
COc1ccc(N2CCN(C(=O)C3CCN(C(=O)c4ccc([N+](=O)[O-])cc4)CC3)CC2)cc1 | inactive | –
O=C(NC(=S)Nc1sc2c(c1C(=O)O)CCCC2)c1ccccc1 | inconclusive: 89.1 µM [inhibitor, partial curve] | –
Cc1cc([N+](=O)[O-])ccc1NCc1cccc2ccccc12 | inconclusive: 11.2 µM [inhibitor, full curve, poor fit] | –
Cc1ccc2c(c1)c1ncnc(N3CCOCC3)c1n2C | inconclusive: 89.1 µM [inhibitor, single point] | –
CCOc1cc(/C=N/N=C(N)N)ccc1OCc1ccc(Cl)cc1 | inconclusive: 50.1 µM [inhibitor, partial curve] | –
O=C(NCc1ccco1)c1cnn2c1NC(c1ccccc1)CC2C(F)(F)F (stereo unspecified) | inconclusive: 56.2 µM [inhibitor, partial curve] | –
CCCCCC(=O)O/N=C(\C)c1ccn(S(=O)(=O)c2ccccc2)c1 | inactive | –
Cc1ccc(-n2c(SCC(=O)Nc3ccc4c(c3)OCCO4)nc3c([nH]c4ccccc43)c2=O)cc1 | inactive | –
C#CCOCCOCCOCCNc1nc(N2CCN(C(=O)[C@H](CCCN=C(N)N)n3cc(C(N)[C@@H](C)CC)nn3)CC2)nc(N2CCN(C(=O)[C@H](CCC(=O)O)n3cc([C@@H](N)CCCCN)nn3)CC2)n1 (stereo partly specified) | active: 89.1 µM | –
Cc1csc2nc(COC(=O)c3ccc(NC(=O)C(C)C)cc3)cc(=O)n12 | inactive | –
CCCN1Cc2cccc(C(=O)NC(CC(=O)OCC)c3ccc(C)cc3)c2C1=O (stereo unspecified) | inactive | –
COCCNC(=O)c1ccc(-c2nc(CN3CCc4ccccc43)c(C)o2)cc1 | inactive | –
C=CC[n+]1c(C)csc1Nc1ccc(C)cc1 | – | inconclusive: -58.7% [inhibitor]
CCCOc1ccc(C2C(C(=O)c3ccc(C)o3)=C(O)C(=O)N2Cc2ccco2)cc1OCC (stereo unspecified) | inconclusive: 79.4 µM [inhibitor, partial curve] | –
Cc1ccccc1OCc1nc2ccccc2[nH]1 | inconclusive: 10 µM [inhibitor, partial curve, poor fit] | –
Cc1ccc(C)c(OCc2nnc(NC(=O)c3ccc4c(c3)OCO4)s2)c1 | inactive | –

Structure (SMILES) | Potency | activity change, negative = inhibition
COc1ccccc1-n1c(CNC(=O)COc2ccccc2)n[nH]c1=S | active: 7.08 µM | –
Cc1ccc(NC(=O)Cn2nc(C(=O)O)c3ccccc3c2=O)c([N+](=O)[O-])c1 | inactive | –
COc1ccccc1CNCC(=O)Nc1ccccc1-n1cccc1 | active: 22.4 µM | –
CCOC(=O)c1c(C)oc2nc(C)nc(N3CCN(c4ccc(OC)cc4)CC3)c12 | active: 39.8 µM | –
O=C(OCCN1CCOCC1)C1(c2ccccc2)CCCCC1 | inactive | –
COc1cc(C2C(C#N)=C(N)Oc3c2oc(CO)cc3=O)cc(OC)c1OC (stereo unspecified) | active: 7.08 µM | –
CCN1CCN(c2ccc(NC(=O)c3ccc4c(c3)OCCO4)cc2C)CC1 | inactive | –
COCCn1c(SCC(=O)NCC2CCCO2)nc2c(c1=O)SCC2 (stereo unspecified) | active: 89.1 µM | –
Cc1cc(NC(=O)CSc2ccc3nnc(-c4cccc(F)c4)n3n2)no1 | inactive | –
CCOC(=O)N1CCN(c2c(NCCCN(C)c3ccccc3)c(=O)c2=O)CC1 | inactive | –
Cn1c(=O)c2ccccc2n2c(CCl)nnc12 | inactive | –
CCN1CCN(CC(=O)Nc2cc(S(=O)(=O)N3CCCCC3)ccc2Cl)CC1 | active: 22.4 µM | –
CCC(=O)Nc1ccc(C(=O)NNC(=O)C(c2ccccc2)c2ccccc2)cc1 | inconclusive: 39.8 µM [inhibitor, single point] | –
CCOC(=O)c1ccc2c(c1)[C@@H]1C=CC[C@@H]1[C@H](c1cccc(OC)c1OC)N2 | inactive | –
CC(=O)c1ccc(N2CCN(C(=O)c3cc4ccc5cccnc5c4[nH]3)CC2)cc1 | inconclusive: 89.1 µM [inhibitor, partial curve] | –
Cc1ccc(Cl)cc1N(C)C(=O)Cn1ncc2c([nH]c3ccccc32)c1=O | inactive | –
CC(C(=O)Nc1ccc(S(=O)(=O)N2CCCC2)cc1)N1CCN(c2ccccc2O)CC1 (stereo unspecified) | inconclusive: 56.2 µM [inhibitor, partial curve] | –
N#CC1(NC(=O)COC(=O)c2cc(O)c3ccccc3c2O)CCCCC1 | active: 25.1 µM | –
Cc1c(C(=O)NC2CCC(C)CC2)oc2ccccc12 (stereo unspecified) | inactive | –
COc1ccccc1N1CCN(CCCNC(=O)c2cnn(-c3ccc(C)c(C)c3)c2C2CCN(C(=O)OC(C)(C)C)CC2)CC1 | inconclusive: 50.1 µM [inhibitor, partial curve] | –
Cn1c(-c2ccccc2)cnc1N | inconclusive: 70.8 µM [inhibitor, partial curve] | –
CCc1cccc(NS(=O)(=O)c2ccc3c(c2)N(C)CCO3)c1 | active: 31.6 µM | –
Cc1ccc(N2CC(=O)N(NC(=O)c3sc4nc(C)cc(C)c4c3N)CC2=O)cc1 | inconclusive: 3.16 µM [inhibitor, full curve] | –
Cc1c(O)ccc(/C=N/Nc2nc(-c3cccnc3)nc3ccccc23)c1O | inconclusive: 39.8 µM [inhibitor, partial curve] | –

Structure (SMILES) | Potency | activity change, negative = inhibition
Cc1ccccc1-c1n[nH]c(=S)n1/N=C/c1ccc(-c2ccccc2Br)o1 | inconclusive: 50.1 µM [inhibitor, partial curve] | –
O=c1cc(-c2ccccc2)[nH]n1-c1ccc([N+](=O)[O-])cc1 | active: 35.5 µM | –
O=C(N/N=C/c1cc([N+](=O)[O-])ccc1N1CCNCC1)c1ccc([N+](=O)[O-])cc1 | inactive | –
COc1ccccc1-c1nnc2sc(COc3ccc(Cl)cc3Cl)nn12 | inconclusive: 1.26 µM [inhibitor, partial curve, poor fit] | –
CC1=C(C(=O)Nc2ccccc2)C(c2ccncc2)C(C#N)=C(SCC(=O)Nc2ccccc2)N1 (stereo unspecified) | inactive | –
Cc1ccc(-n2nc3ccc(NC(=O)Cc4ccc(Cl)cc4)cc3n2)cc1 | inconclusive: 56.2 µM [inhibitor, partial curve] | –
COCCN(C(=O)CSc1nc2ccccc2c(=O)n1CC(C)C)c1c(N)n(Cc2ccccc2)c(=O)[nH]c1=O | inactive | –
CCOc1ccc(NC(=O)Cn2c(=O)n(CCCC(=O)NCc3ccc4c(c3)OCO4)c(=O)c3ccccc32)cc1 | inactive | –
COc1ccc(C2c3c4c(n(C)c3CCN2C)CCN(C)C4c2ccc(OC)cc2)cc1 (stereo unspecified) | inconclusive: 56.2 µM [inhibitor, partial curve] | –
CC(=O)c1ccc(N2CCN(C(=O)C3CCN(S(=O)(=O)c4cccs4)CC3)CC2)cc1 | inactive | –
C#CCOCCOCCOCCNc1nc(N2CCN(C(=O)[C@H]([C@@H](C)CC)n3cc([C@@H](N)CC(C)C)nn3)CC2)nc(N2CCN(C(=O)[C@H](CCCCN)n3cc([C@@H](N)C(C)CC)nn3)CC2)n1 (stereo partly specified) | active: 79.4 µM | –
CCOc1ccc2nc(NC(=O)CS(=O)(=O)c3ccc(C)cc3)sc2c1 | inconclusive: 100 µM [inhibitor, single point] | –
COc1cc(Cl)c(NC2=CC(=O)C(=O)c3ccccc32)c(OC)c1 | inconclusive: 20 µM [inhibitor, full curve, poor fit] | –
COc1ccccc1N1C(=O)CC(Sc2n[nH]c(-c3cccc(C)c3)n2)C1=O (stereo unspecified) | active: 2.82 µM | –
Cc1ccc(C(c2c(C)nn(-c3ccccc3)c2N)c2c(C)nn(-c3ccccc3)c2N)cc1 | inconclusive: 56.2 µM [inhibitor, partial curve] | –
O=C(c1ccc2c3c(cccc13)CC2)C1CCCN(Cc2ccccn2)C1 (stereo unspecified) | inconclusive: 39.8 µM [inhibitor, partial curve] | –
COc1ccc(N2CCN(C(CNS(=O)(=O)c3cccs3)c3cccnc3)CC2)cc1 (stereo unspecified) | inconclusive: 79.4 µM [inhibitor, partial curve] | –
Nc1nc(N)c2sc3nc4c(cc3c2n1)CCC4 | inactive | –
N#Cc1nc(-c2ccc(F)cc2)oc1N1CCCC1 | – | inactive: -12.3% [at 11.4 µM]
CC1CC(C)CN(S(=O)(=O)c2cccc(C(=O)N3CCN(c4ccc(F)cc4)CC3)c2)C1 (stereo unspecified) | inconclusive: 15.8 µM [inhibitor, partial curve] | –
C/C(CC(=O)Nc1cccc(Cl)c1C)=N\NC(=O)C(=O)NCC(C)C | inconclusive: 44.7 µM [inhibitor, single point] | –
CCCCC(=O)OCC(=O)Nc1cccc(S(=O)(=O)NC2=NCCCCC2)c1 | inconclusive: 39.8 µM [inhibitor, full curve, poor fit] | –
CCSc1ncc(Cl)c(C(=O)N(Cc2ccccc2)Cc2ccco2)n1 | inactive | –

From PubChem BioAssay AID504339 (National Center for Advancing Translational Sciences (NCATS), 2011)
